By IC50 is meant the dose at which the fit gives 50% viability; fits outside the tested doses are given as limits. The AUC spans the tested range (256-fold, ending at the top dose) of the same fit; values near 1 show little effect.

Compound in the assay: FC(F)c1nc2ccccc2n1-c1nc(N2CCOCC2)nc(N2CCOCC2)n1 [ZSTK474]
The assay can be described thus: Viability of human cancer cell lines after 72 h of drug (GDSC screen). Here is the method:
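Human cancer cell lines in 384-well plates, medium with 10% serum, drug for 72 h over a 256-fold dose range (nine 2-fold or five 4-fold steps up to the top dose). Adherent lines were fixed and stained with the nucleic acid dye Syto60, suspension lines read with resazurin; signal relative to control wells, capped at 0 and 100%. One two-parameter sigmoid per drug and line, fitted in a mixed model over all curves with the slope shared within a line.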

Broadly, the IC50 is the midpoint of a concentration-inhibition curve. Take “COLO-800 (melanoma, adherent, top dose 5.12 µM)”: the AUC stood at 0.811 and the concentration for half-maximal inhibition (IC50) stood at 2.62 µM.
Consider “COLO-824 (breast, adherent, top dose 5.12 µM)”, for which the AUC turned out to be 0.907 and the concentration for half-maximal inhibition (IC50) was greater than 5.12 µM.
Turning to “COLO-829 (melanoma, adherent, top dose 5.12 µM)”, the AUC was 0.721 and the half-inhibitory concentration (IC50) worked out at 1.86 µM.
For “COR-L23 (large cell lung carcinoma, adherent, top dose 5.12 µM)”, the AUC came to 0.774 and the IC50 amounted to 1.95 µM.
Consider “COR-L88 (small cell lung carcinoma, adherent, top dose 5.12 µM)”, for which the AUC worked out at 0.964 and the IC50 is greater than 5.12 µM.
Take “COR-L95 (small cell lung carcinoma, adherent, top dose 5.12 µM)”: the AUC was 0.906 and the concentration for half-maximal inhibition (IC50) is greater than 5.12 µM.
On to “COR-L105 (lung adenocarcinoma, adherent, top dose 5.12 µM)”, for which the AUC was determined as 0.608 and the IC50 is 0.679 µM.
On the same counts, the results for “COR-L279 (small cell lung carcinoma, suspension, top dose 5.12 µM)” are 0.728 and 1.3 µM.
On the same counts, the results for “COR-L303 (small cell lung carcinoma, suspension, top dose 5.12 µM)” are 0.582 and 0.531 µM.
Take “COR-L311 (small cell lung carcinoma, suspension, top dose 5.12 µM)”: the AUC came out at 0.529 and the half-inhibitory concentration (IC50) stood at 0.387 µM.
As for “COR-L321 (lung, suspension, top dose 5.12 µM)”, the AUC was 0.797 and the IC50 was determined as 2.41 µM.
On the same counts, the results for “CP50-MEL-B (melanoma, adherent, top dose 5.12 µM)” are 0.943 and greater than 5.12 µM.
Consider “CP66-MEL (melanoma, adherent, top dose 5.12 µM)”, for which the AUC was found to be 0.901 and the half-inhibitory concentration (IC50) was greater than 5.12 µM.
The like results for “CPC-N (small cell lung carcinoma, suspension, top dose 5.12 µM)” were, in that order, 0.911 and greater than 5.12 µM.
On the same counts, the results for CS1 (bone, adherent, top dose 5.12 µM) are 0.632 and 0.777 µM.
The like results for “CTB-1 (B-cell lymphoma, suspension, top dose 5.12 µM)” were, in that order, 0.823 and 4.62 µM.
Consider “CTV-1 (acute myeloid leukaemia, suspension, top dose 5.12 µM)”, for which the AUC came out at 0.789 and the IC50 amounted to 1.79 µM.
The like results for “CW-2 (large intestine, adherent, top dose 5.12 µM)” were, in that order, 0.973 and greater than 5.12 µM.
On to “Ca9-22 (head and neck, adherent, top dose 5.12 µM)”, for which the AUC stood at 0.969 and the IC50 was greater than 5.12 µM.
As to “Ca-Ski (cervix, adherent, top dose 5.12 µM)”, the AUC is 0.465 and the IC50 was found to be 0.254 µM.
Turning to “CaR-1 (large intestine, adherent, top dose 5.12 µM)”, the AUC stood at 0.815 and the IC50 worked out at 4.84 µM.
The like results for “Calu-3 (lung adenocarcinoma, adherent, top dose 5.12 µM)” were, in that order, 0.6 and 0.646 µM.
On the same counts, the results for “Calu-6 (lung adenocarcinoma, adherent, top dose 5.12 µM)” are 0.945 and greater than 5.12 µM.
On to “Caov-3 (ovary, adherent, top dose 5.12 µM)”, for which the AUC turned out to be 0.841 and the IC50 was determined as 2.94 µM.
On the same counts, the results for “Caov-4 (ovary, adherent, top dose 5.12 µM)” are 0.625 and 0.833 µM.
The like results for “Capan-2 (pancreas, adherent, top dose 5.12 µM)” were, in that order, 0.843 and 4.83 µM.
On to “ChaGo-K-1 (non-small cell lung carcinoma, adherent, top dose 5.12 µM)”, for which the AUC came to 0.917 and the IC50 was greater than 5.12 µM.
In the case of “D-247MG (glioma, adherent, top dose 5.12 µM)”, the AUC was 0.83 and the half-inhibitory concentration (IC50) turned out to be 5.01 µM.
On the same counts, the results for “D-263MG (glioma, adherent, top dose 5.12 µM)” are 0.969 and greater than 5.12 µM.
As to “D-283MED (medulloblastoma, adherent, top dose 5.12 µM)”, the AUC stood at 0.99 and the 50% inhibitory concentration (IC50) is greater than 5.12 µM.
The like results for “D-336MG (glioma, adherent, top dose 5.12 µM)” were, in that order, 0.658 and 1 µM.
Take “D-392MG (glioma, adherent, top dose 5.12 µM)”: the AUC was determined as 0.839 and the IC50 was greater than 5.12 µM.
Regarding “D-423MG (glioma, adherent, top dose 5.12 µM)”, the AUC amounted to 0.52 and the IC50 is 0.367 µM.
On the same counts, the results for “D-502MG (glioma, adherent, top dose 5.12 µM)” are 0.776 and 3.35 µM.
On the same counts, the results for “D-542MG (glioma, adherent, top dose 5.12 µM)” are 0.923 and greater than 5.12 µM.
The like results for “D-566MG (glioma, adherent, top dose 5.12 µM)” were, in that order, 0.968 and greater than 5.12 µM.
Regarding “DAN-G (pancreas, adherent, top dose 5.12 µM)”, the AUC was determined as 0.841 and the half-inhibitory concentration (IC50) was found to be 2.93 µM.
On the same counts, the results for “DB (B-cell lymphoma, suspension, top dose 5.12 µM)” are 0.897 and greater than 5.12 µM.
Take “DBTRG-05MG (glioma, adherent, top dose 5.12 µM)”: the AUC worked out at 0.893 and the IC50 is greater than 5.12 µM.
Regarding “DEL (lymphoid neoplasm, suspension, top dose 5.12 µM)”, the AUC amounted to 0.909 and the half-maximal inhibitory concentration (IC50) turned out to be 4.46 µM.
As for “DG-75 (Burkitt lymphoma, suspension, top dose 5.12 µM)”, the AUC was determined as 0.926 and the 50% inhibitory concentration (IC50) is greater than 5.12 µM.
In the case of “DJM-1 (skin, adherent, top dose 5.12 µM)”, the AUC was found to be 0.96 and the half-maximal inhibitory concentration (IC50) is greater than 5.12 µM.
On to “DK-MG (glioma, adherent, top dose 5.12 µM)”, for which the AUC is 0.852 and the concentration for half-maximal inhibition (IC50) is greater than 5.12 µM.
As for “DMS-53 (small cell lung carcinoma, adherent, top dose 5.12 µM)”, the AUC is 0.982 and the half-maximal inhibitory concentration (IC50) was greater than 5.12 µM.
As for “DMS-79 (small cell lung carcinoma, suspension, top dose 5.12 µM)”, the AUC was 0.889 and the IC50 is greater than 5.12 µM.
For “DMS-114 (small cell lung carcinoma, adherent, top dose 5.12 µM)”, the AUC turned out to be 0.78 and the IC50 was 2.45 µM.
The like results for “DMS-273 (small cell lung carcinoma, adherent, top dose 5.12 µM)” were, in that order, 0.9 and greater than 5.12 µM.
On to “DND-41 (T-cell leukaemia, suspension, top dose 5.12 µM)”, for which the AUC was found to be 0.739 and the IC50 stood at 1.39 µM.
The like results for “DOK (head and neck, adherent, top dose 5.12 µM)” were, in that order, 0.629 and 0.869 µM.
Consider “DOV13 (ovary, adherent, top dose 5.12 µM)”, for which the AUC was determined as 0.91 and the half-maximal inhibitory concentration (IC50) was greater than 5.12 µM.
The like results for “DSH1 (bladder, adherent, top dose 5.12 µM)” were, in that order, 0.79 and 2.18 µM.
Take “DU-145 (prostate, adherent, top dose 5.12 µM)”: the AUC came out at 0.954 and the IC50 is greater than 5.12 µM.
For the cell line “DU-4475 (breast, suspension, top dose 5.12 µM)”, the AUC amounted to 0.904 and the IC50 was 4.59 µM.
Take “Daoy (medulloblastoma, adherent, top dose 5.12 µM)”: the AUC is 0.686 and the concentration for half-maximal inhibition (IC50) worked out at 1 µM.
Turning to “Detroit562 (head and neck, adherent, top dose 5.12 µM)”, the AUC is 0.901 and the 50% inhibitory concentration (IC50) was greater than 5.12 µM.
On the same counts, the results for “DoTc2-4510 (cervix, adherent, top dose 5.12 µM)” are 0.928 and greater than 5.12 µM.
On the same counts, the results for “EB2 (Burkitt lymphoma, suspension, top dose 5.12 µM)” are 0.146 and 0.0295 µM.
On the same counts, the results for “EB-3 (Burkitt lymphoma, suspension, top dose 5.12 µM)” are 0.534 and 0.402 µM.
Turning to “EBC-1 (lung squamous cell carcinoma, adherent, top dose 5.12 µM)”, the AUC was found to be 0.708 and the IC50 stood at 1.34 µM.
The like results for “EC-GI-10 (oesophagus, adherent, top dose 5.12 µM)” were, in that order, 0.989 and greater than 5.12 µM.
Consider “ECC10 (stomach, suspension, top dose 5.12 µM)”, for which the AUC was determined as 0.901 and the IC50 is greater than 5.12 µM.
The like results for “EFM-19 (breast, adherent, top dose 5.12 µM)” were, in that order, 0.66 and 1.13 µM.
As for “EFM-192A (breast, adherent, top dose 5.12 µM)”, the AUC was 0.675 and the IC50 stood at 1.05 µM.
On the same counts, the results for “EFO-21 (ovary, adherent, top dose 5.12 µM)” are 0.743 and 2.2 µM.
“EFO-27 (ovary, adherent, top dose 5.12 µM)”: the AUC is 0.823 and the IC50 is 4.08 µM.
